# Experimental data taken from the supplement of paper PMC11417369.
# The other results are listed elsewhere or left out.
# Tested on: PfAP2-HC AP2 domain (GST-tagged)
# Experiment: gcPBM binding intensity (ln(normalized median fluorescence intensity)); higher = stronger DNA binding
# Procedure, shortened: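 An Agilent 4 × 180k array of primer-extended double-stranded 36-bp intergenic genomic probes, with negative controls, was incubated for 1 h with GST-tagged P. falciparum DNA-binding domains expressed in E. coli. Alexa488 anti-GST antibody detected bound protein, scanned at 488 nm. Binding intensity is the highest Masliner-normalised natural-log median intensity across replicate spots of either probe orientation.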
row,Sequence,gcPBM binding intensity (ln)
1,AAAAGTCTCTTTTTAGTGCACATTTTATTTAAATAT,9.58
2,CAGATAAGGTGAAGCTGTACAAAAATGTTTTATAAC [XGTACX_site6783],9.81
3,AAACAATTTGGGTGTACACATGATACGTTCGATGAG [CACACA_site5160],9.84
4,ATATTATACATTTATACACACATAAAAAGACAAAAA [CACACA_site3565],9.92
5,ATAACCTAATAATACACACACATGAATATAAATAAC [CACACA_site6584],10.2
6,ATATATATTTTATACGCATGTAATTATTATGTGGTC [TGCATGCA_site45],9.76
7,TATATTAAACAATATACACACATTAATGTATCCATA [CACACA_site5523],9.74
8,TTATATATATATATATGTACACATATATAACATGAT [XGTACX_site6643],9.65
9,TGTAATATTTTTCATGCATGCTCTTCTTTTACATAA [TGCATGCA_site144],10.2
10,ATAATTTATATTACTTGTACATATTTATATGAACGA [XGTACX_site3610],9.61
11,AAAATTAAAAATAACACACACATATTTATATTTATA [CACACA_site7329],10.5
12,AAGGAGAAATATTGCACACGTGCAAAATGGTATGAG [CACACA_site259],10.3
13,TATTCTTTTATGAATACACACATATACGAAAATATT [CACACA_site6585],9.55
14,CTTAATTTTTTTTAATGTACATACATATAAACCTTT [XGTACX_site2233],9.67
15,AGTTATATGTACTACACACGTACACAAAATAAGATA [CACACA_site3719],9.87
16,AAAAGGTTATCAAAATGTACGAAATGTTACAAAAAT [XGTACX_site6215],9.67
17,AGGTGTCATAGATGCACACAAAAGTAACACGCACCT [CACACA_site4418],9.84
18,AAATGTTAAAAAGAGAAAAACAATAAAAAACAATTA [CACACA_negctrl_site1044],9.74
19,ATATGCTATTAATTATGTACATATATATATATATAT [XGTACX_site4901],9.82
20,GTACATTATATATATACACACATACATAATAAAGAA [CACACA_site5528],10.1
21,GGACTATACAGTTATACACACACATATATATATAAT [CACACA_site7991],10.1
22,ACTACGTGTCAAAAATATTAATTACAAATGAATAAA [GTGCAC_negctrl_site248],9.52
23,TATTAATATATAGTAGTGCAATAAAGATATACTGAA,9.74

row,Sequence,gcPBM binding intensity (ln)
1,AACATACTCACGAACATACACACGGACATACATACG [CACACA_site603],10.1
2,ATGCATACACTTATATGTACACATTTACATATTATT [XGTACX_site2841],10.1
3,AATAAATAAATATATTGTACATATATATATATATAT [XGTACX_site8627],9.63
4,CGAAAGGAAATATAACGTACATAAGATTATATTCAC [XGTACX_site3868],9.66
5,ATGAACAAGGGGCACACACACATTATGACTAATTTA [CACACA_site3204],10.2
6,TATTAAAAGAAAAAAAAAAAAAAATTAATACATATA [XGTACX_negctrl_site582],9.36
7,AAAACAAACGGACACACACACATATATATATATATA [CACACA_site5924],10.5
8,ACATGTAAATTTACATGTACATGTAACACTTAATAT [XGTACX_site4575],9.74
9,TAATATTTTAATTGTGTGCACATTAATATTATAAAA,9.64
10,TTTAGTGAGTTTGTTGTGCACTGAAAAAATTACAAT,9.48
11,TATATTATTTTTTGTGGTACATGTATTTTTACCTAA [XGTACX_site4348],9.71
12,TACATATTTACTATCACACACACGATATATATAAAT [CACACA_site1242],10.5
13,ATACGAAAAAATAGACGTACTATGAAATAATAATTT [XGTACX_site8387],9.8
14,TACTTAAAAAAAAAAAAAATAAATATTATGTATTAT [CACACA_negctrl_site138],9.36
15,AATATTTTAAAAAAATGTACTTTTAACCCTTATTGG [XGTACX_site3490],9.26
16,TATAAAATATAAATTTGTACATATAAAATATTTTAT [XGTACX_site7462],9.34
17,TTTTTTAAAATATAAAATATGTACAAATATGTTGAA [GTGCAC_negctrl_site379],9.4
18,TAATAGTTATAAAATACACACCAGGCATGATAAATG [CACACA_site4335],9.82
19,TATATATATATACATACATATAAAGTTACATAAACA [CACACA_negctrl_site432],9.67
20,GAACAAACAAAGAAAGAACACACATACACAATATAC [CACACA_site8918],10.8
21,TAGATTTTTTTACATTGTACATATTTTTTCTTATAG [XGTACX_site293],9.8
22,ATATATGGGTAGTATACACACTGTATATTTAGGAAT [CACACA_site7357],9.91
23,GTATGAAAAAAATATGCATGCTAAATAATAAATGTT [TGCATGCA_site352],9.76

row,Sequence,gcPBM binding intensity (ln)
1,ATCATTTTTATAAATTGTACAAATATTTTTTATACA [XGTACX_site7551],9.48
2,TTATATAAATATAAGGTGCTGGGGTTTATTACATAT [GTGCAC_site9909],10.4
3,ATATCGCACGTTTGAAGTACATAAAAACGATTAATA [XGTACX_site7684],9.52
4,CACCAATTCATATGCACACACATCTGCATATTATAG [CACACA_site6925],9.98
5,CATATTATTTATATTTGTACACAGCGATATGAAATA [XGTACX_site7717],9.67
6,CTTACATAAAATATCACACACATAAAAAAACAATAT [CACACA_site1901],10.4
7,TATATATATATATATGTGCACATATATATGATATTA,9.58
8,ATATTTTATACTTGCACACAAAATATATTAGAATGT [CACACA_site1985],9.88
9,GAAATCTAATTTATTACACACATTTGAAAAAAATTC [CACACA_site6640],9.58
10,TTATATTTTTTTGAGTGTACTTTTTGTGTAAAATTC [XGTACX_site2155],9.47
11,ACCCATTTTTGTTGTTCTATATATTCGTGAATCATT [CACACA_negctrl_site614],9.79
12,AATTTTTTGAATAATTGTACATATTTGGTTAAATAT [XGTACX_site3612],9.58
13,TTACTAAGAAGGATTTATTTTATAAAAATATTTATT [XGTACX_negctrl_site549],9.43
14,TGTTTATGTTTACATGTGCGCATTACAGAAAAAAAA [GTGCAC_site9669],9.54
15,TATTTTTATTGGTGAATACACACGTATATATATATT [CACACA_site2401],9.83
16,TTTTTATTTAAAAGTAGTACAAGGGTTATTATTAAC [XGTACX_site1555],9.34
17,ACATGTATACTTTTTACGAAAAAAAAAAAAAAAAAA [CACACA_negctrl_site1638],9.04
18,TTTTTTTTTTTTTTTGCACACTTAAATTTGGTGGGG [CACACA_site2344],9.85
19,CACGCGCACGAACACACACACACACGCATATAAATA [CACACA_site7103],11
20,ATATTATTTTATTTTTGTACAGATATCTTTAAAAAA [XGTACX_site3734],9.44
21,TACAGATAAATATACATACATATATATATATATATA [XGTACX_negctrl_site182],9.55
22,TTATTAAAAATGGTATGTACGCACATAATATATATA [XGTACX_site3230],9.83
23,AACATCATCTCTCCACAACAACAAAAAAAAAAATAC [CACACA_negctrl_site311],9.62

row,Sequence,gcPBM binding intensity (ln)
1,AATACATACATACATACATGCATATATATATATATA [TGCATGCA_site462],10.3
2,AAAATTATATGTAATTGTACGGAATTATATACGCAA [XGTACX_site2048],9.69
3,TCCTGTGGTTATATAACACACATTATTGCTTATAAG [CACACA_site6823],9.72
4,TTTTTTAAAAATATTATCATCGTAACAAGAAATCGA [CACACA_negctrl_site1111],9.3
5,GAACAAAAAAAAAATTGTACACAATTTTTTAAAATT [XGTACX_site4455],9.42
6,ATGATTTATTATTATACACACAAAAAAAAAAAAGGA [CACACA_site264],9.82
7,AATACATACATATATACATGCATACATATAAATATA [TGCATGCA_site674],9.74
8,GCTTATAAGATATGCACACACAACACTTACAAAAAA [CACACA_site817],10.1
9,AAACAAAAAAAATAAGCACACATATATATATATATA [CACACA_site8173],9.7
10,ATTTTATGAAATGTTGCACACAAAAAACAACATGTT [CACACA_site8408],9.81
11,TATATGATATAATATACACACATACATATATATATA [CACACA_site8066],9.84
12,GAACAACAACAAAAAAAAAAAAAAAAAAAAAAAAAA [CACACA_negctrl_site199],8.96
13,TAAATAAATATATGTACACACACAAATATATACATA [CACACA_site8577],10.3
14,CTGAATTTTTATAACTGTACATATTTGATATAAAAA [XGTACX_site183],9.33
15,ATGGGAAAAACATTCCGTACATACATACACATATAT [XGTACX_site8263],9.75
16,ATATTTAATACAAATACACACACAAATATATACATA [CACACA_site9248],10.4
17,ATATTGCTTATTTGATGTACGAATACACTAGTATTA [XGTACX_site4536],9.64
18,ATACTAAATGAACACACACACATATAGATTTATAAC [CACACA_site6200],10.5
19,TATCTGTATATGTGTACACATATTCTTAACTCACGC [CACACA_site4255],9.86
20,TCACTTTTTATTAAATGTACATGCTTTCATTTTCAT [XGTACX_site8139],9.79
